Measured values reported in PubChem BioAssay AID360 (National Center for Advancing Translational Sciences (NCATS), 2006).
Screen size: about 48,000 compounds; about 550 (1.1%) were called active. Roughly 4% stayed inconclusive and do not appear here. Rule as the data show it: active = potency below about 15 µM; inconclusive = mostly about 16 µM to 33 µM; inactive = weaker than that. Some of the results follow.

Target: Lysosomal acid glucosylceramidase (Homo sapiens) (UniProt P04062)
Assay: Glucocerebrosidase;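 also: the screen sought inhibitors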
Conditions: purified enzyme, resorufin glucoside fluorescence (screen aimed at inhibitors), 20 min
Procedure, shortened: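 Normal human glucocerebrosidase (0.2 nM final) was assayed with resorufin β-D-glucopyranoside (30 uM final) in 50mM citric acid/KH2PO4, 10mM sodium taurocholate, 0.01% tween-20, pH 5.9. Compounds were titrated; fluorescence (Ex 548, Em 600) read after 20 min at RT.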
Potency is read from the fitted curve at half-maximal effect.

UniProt P04062, sequence (P04062 whole entry, looked up): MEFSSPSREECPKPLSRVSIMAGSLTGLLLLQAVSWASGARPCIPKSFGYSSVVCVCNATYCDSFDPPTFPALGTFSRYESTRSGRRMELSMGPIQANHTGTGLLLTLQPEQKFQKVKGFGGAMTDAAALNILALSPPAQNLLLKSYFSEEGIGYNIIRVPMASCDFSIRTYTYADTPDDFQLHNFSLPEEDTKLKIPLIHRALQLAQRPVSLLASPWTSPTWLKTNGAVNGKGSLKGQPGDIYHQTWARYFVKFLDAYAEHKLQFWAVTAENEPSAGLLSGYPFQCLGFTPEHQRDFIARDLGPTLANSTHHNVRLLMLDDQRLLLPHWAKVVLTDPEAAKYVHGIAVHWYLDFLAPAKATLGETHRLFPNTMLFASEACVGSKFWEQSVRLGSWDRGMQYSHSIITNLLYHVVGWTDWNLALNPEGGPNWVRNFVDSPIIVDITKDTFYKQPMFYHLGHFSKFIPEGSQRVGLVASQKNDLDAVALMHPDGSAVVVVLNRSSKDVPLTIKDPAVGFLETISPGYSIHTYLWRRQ

Row | SMILES | Potency
1 | CC(C)CCN1C(=O)c2ccc(C(=O)NCc3ccco3)cc2C1=O | inactive: > 76.9 µM
2 | COCCCNC(=O)C(Cc1ccccc1)NS(=O)(=O)c1ccc2c(c1)c(=O)n(C)c(=O)n2C (stereo not given) | inactive: > 76.9 µM
3 | COC(=O)CSc1nc2cc3c(cc2cc1C)OCCO3 | inactive: > 76.9 µM
4 | Cc1ccc(CN2C(=O)CCC2C(=O)NC2CC2)cc1 (stereo not given) | inactive: > 76.9 µM
5 | CSc1nc2ccc(S(=O)(=O)N3CCc4ccccc43)cc2s1 | inactive: > 76.9 µM
6 | CN(Cc1nc(-c2cccnc2)no1)S(=O)(=O)c1ccc(Br)cc1 | inactive: > 76.9 µM
7 | CCC(=O)N1CCc2cc(S(=O)(=O)NC(CC(C)C)C(=O)N3CCc4ccccc43)ccc21 (stereo not given) | inactive: > 76.9 µM
8 | Cc1c(NC(=O)C2(c3ccccc3)CCOCC2)c(=O)n(-c2ccccc2)n1C | inactive: > 76.9 µM
9 | CCN(C(=O)CCc1nc(-c2ccccc2F)no1)c1cc(OC)ccc1OC | active: 15.2 µM
10 | COc1c(C)cc(Br)cc1C(=O)NCc1cccnc1 | inactive: > 76.9 µM
11 | CCCn1c(SCC(=O)c2ccc3c(c2)OCCO3)nnc1-c1ccco1 | inactive: > 76.9 µM
12 | Cc1cccc(OCC(O)CN2CCN(C3CCCCC3)CC2)c1 (stereo not given) | inactive: > 76.9 µM
13 | COCC(=O)NCc1ccc2c(c1)cc(C)n2C | inactive: > 76.9 µM
14 | O=C(O)CC1CCCC(c2ccccc2)C1=O (stereo not given) | inactive: > 76.9 µM
15 | CC(C)c1[nH]nc2c1C(c1cccc(OC(=O)N3CCOCC3)c1)C(C#N)=C(N)O2 (stereo not given) | inactive: > 76.9 µM
16 | O=C(NC1(C(F)(F)F)NC(=O)N(C2CCCCC2)C1=O)c1cccs1 (stereo not given) | inactive: > 76.9 µM
17 | Cc1noc(C)c1S(=O)(=O)N1CCC(C(=O)NCCN2CCC(C)CC2)CC1 | inactive: > 76.9 µM
18 | COc1ccccc1NC(=O)C1CCCN1C(=O)NCc1ccccc1 (stereo not given) | inactive: > 76.9 µM
19 | O=C(CN(C1CC1)S(=O)(=O)c1ccc(S(=O)(=O)NC2CCCCC2)cc1)Nc1ccccc1 | inactive
20 | O=C(c1ccc(F)cc1)C1CCN(C(=O)c2ccncc2)CC1 | inactive: > 76.9 µM
21 | CCc1cc2cccc(C)c2nc1SCC(=O)N1CCN(C(=O)c2ccco2)CC1 | inactive: > 76.9 µM
22 | CCCCn1c(SCC(=O)NCC2CCCO2)nc2ccc(N3CCOCC3)cc2c1=O (stereo not given) | inactive: > 76.9 µM
23 | O=C(Nc1ccc(-c2cn3ccsc3n2)cc1)C1CC1 | inactive

Row | SMILES | Potency
24 | CC1CN(CCC(=O)Nc2ccc3c(c2)CCC3)CC(C)O1 (stereo not given) | inactive: > 76.9 µM
25 | CC(=O)Nc1cn(C(C)=O)c(C)n1 | inactive: > 76.9 µM
26 | CCc1c(C)nc2ncnn2c1N1CCC(C(=O)N2CCN(c3ccccc3)CC2)CC1 | inactive: > 76.9 µM
27 | Cc1cc(C)n(-c2ccc(C(=O)N3CCc4ccccc43)cc2)n1 | inactive: > 76.9 µM
28 | Cc1ccc(S(=O)(=O)C2(C(=O)N3CCN(C4CCCCC4)CC3)CC2)cc1 | inactive: > 76.9 µM
29 | CC1CCCC(C)N1C(=O)c1cc(F)c(F)cc1Cl (stereo not given) | inactive: > 76.9 µM
30 | COc1ccc2[nH]cc(C(=O)N3CCCCC3)c(=O)c2c1 | inactive: > 76.9 µM
31 | CCN1CCCC1CNC(=O)Cn1cnc2sc(C)c(S(=O)(=O)N3CCC(C)CC3)c2c1=O (stereo not given) | inactive: > 76.9 µM
32 | CC(C)C(=O)NC(C)C(c1cccs1)N1CCOCC1 (stereo not given) | inactive: > 76.9 µM
33 | O=c1n(-c2ccccc2)c(=O)n(Cc2ccccn2)n1Cc1ccccn1 | inactive: > 76.9 µM
34 | Cc1ccc(-c2noc(CCC(=O)NCC3CCN(Cc4cccc(C)c4)CC3)n2)cc1 | inactive: > 76.9 µM
35 | CCN1CCN(CCNC(=O)c2cn(C(C)c3ccccc3F)nn2)CC1 (stereo not given) | inactive: > 76.9 µM
36 | CN(C)c1ccc(NC(=O)c2ccncc2)c2ccccc12 | inactive: > 76.9 µM
37 | CN(C1CCCCC1)S(=O)(=O)c1ccc(NC(=O)c2ccc(Br)o2)cc1 | inactive: > 76.9 µM
38 | O=c1oc2c(CN3CCOCC3)c(O)ccc2c2c1CCCC2 | inactive: > 76.9 µM
39 | O=C(CSc1nnc(-c2ccccc2)n1C1CCCCC1)N1CCCC1 | inactive: > 76.9 µM
40 | Cc1c(NC(=O)CN2CCN(C(c3ccccc3)c3ccccc3)CC2)c(=O)n(-c2ccccc2)n1C | inactive: > 76.9 µM
41 | Cc1cccc(-c2cc3nc4c(c(N5CCOCC5)n3n2)CCCC4)c1 | inactive: > 76.9 µM
42 | O=C(CSc1nnc2c3c4c(sc3ncn12)CCCC4)NCc1ccco1 | inactive: > 76.9 µM
43 | CCCCn1nnnc1NCc1cc(OC)c(OC)c(OC)c1 | inactive: > 76.9 µM
44 | Cc1ccc(-c2csc(/C(C#N)=C(\O)CN3CCN(C(=O)c4ccco4)CC3)n2)cc1 | inactive
45 | Cc1csc2c(=O)n3c(nc12)CCCCC3 | inactive: > 76.9 µM
46 | CCNc1nc(NCc2ccccc2)nc(Oc2ccc(=O)[nH]n2)n1 | inactive: > 76.9 µM

Row | SMILES | Potency
47 | CSCCC(NC(=O)c1ccco1)C(=O)OC(C)C(=O)NC(=O)NC1CCCCC1 (stereo not given) | inactive: > 76.9 µM
48 | CCOC(=O)N1CCN(C(=O)c2sc3nc(-c4ccc(F)cc4)cn3c2C)CC1 | inactive: > 76.9 µM
49 | CC1(C)OC(=O)C2(Cc3ccccc3N3CCCCC32)C(=O)O1 (stereo not given) | inactive: > 76.9 µM
50 | Cc1cc(C)c(NC2=NCC(=O)N2C2CCCCC2)c(C)c1 | inactive: > 76.9 µM
51 | O=C(CNS(=O)(=O)c1cccs1)N1CCCC1 | inactive: > 76.9 µM
52 | O=C(O)CC1NC(=O)N(c2ccc(Cl)cc2)C1=O (stereo not given) | inactive: > 76.9 µM
53 | CCOC(=O)c1cn(CC)c2ccc(S(=O)(=O)N3CCC(C)CC3)cc2c1=O | inactive: > 76.9 µM
54 | CCOC(=O)N1CCN(S(=O)(=O)c2cccc3nonc23)CC1 | inactive: > 76.9 µM
55 | Cc1ccc(S(=O)(=O)c2nc(-c3ccc(F)cc3)oc2SCC(N)=O)cc1 | inactive: > 76.9 µM
56 | CCOC(=O)c1[nH]c2ccc(OC)cc2c1NC(=O)C(C)N1CCC2(CC1)OCCO2 (stereo not given) | inactive: > 76.9 µM
57 | COc1cccc(-n2c(C)c(C(C)=O)c(C(C)=O)c2C)c1 | inactive: > 76.9 µM
58 | O=C(CN(C(=O)CCC(=O)Nc1nccs1)c1ccc(F)cc1)NCc1ccco1 | inactive: > 76.9 µM
59 | COc1ccccc1NC(=O)NCc1ccc2c(c1)OCO2 | inactive: > 76.9 µM
60 | Cc1cc(C)cc(N2C(=O)CC(n3ccnc3)C2=O)c1 (stereo not given) | inactive: > 76.9 µM
61 | COc1cccc(CN2CCCN(S(=O)(=O)c3ccc(Br)cc3)CC2)c1 | inactive: > 76.9 µM
62 | Cc1ccc(S(=O)(=O)N2CCCCC2C(=O)N2CCN(Cc3ccccc3)CC2)cc1 (stereo not given) | inactive: > 76.9 µM
63 | CCOC(=O)c1ccc(NC(=O)CC2OCCN(CC)C2=O)cc1 (stereo not given) | inactive: > 76.9 µM
64 | c1ccc2c(Cn3nnc4ccccc43)cccc2c1 | inactive: > 76.9 µM
65 | COC(=O)CN(c1cccc(C(C)=O)c1)S(C)(=O)=O | inactive: > 76.9 µM
66 | Cc1cc(C)c2cc(CN(Cc3ccc4c(c3)OCO4)Cc3nnnn3Cc3ccco3)c(=O)[nH]c2c1 | inactive: > 76.9 µM
67 | CCOC(=O)N1CCC(NC(=O)CC(NS(=O)(=O)c2ccc(C)cc2)c2ccco2)CC1 (stereo not given) | inactive: > 76.9 µM
68 | Cc1cc(C)c(C(=O)CN2C(=O)CCC2=O)cc1C | inactive: > 76.9 µM
69 | COc1cccc(NC(=O)Cn2c(SCC(=O)N3CCOCC3)nc3ccccc32)c1 | inactive: > 76.9 µM

Row | SMILES | Potency
70 | FC(F)Oc1cccc2cccnc12 | inactive
71 | CCOc1ccc2[nH]c(=O)c(CN(CCO)C(=O)c3ccccc3F)cc2c1 | inactive: > 76.9 µM
72 | COc1ccc(Cl)cc1NC(=O)CSc1nc(N2CCCCC2)nc(N2CCCCC2)n1 | inactive: > 76.9 µM
73 | C=CCn1c(CCNC(=O)c2cccs2)nnc1SCC(=O)Nc1cccc(C(C)=O)c1 | inactive: > 76.9 µM
74 | N=c1ccn(Cc2cccc(Cl)c2)cc1 | inactive: > 76.9 µM
75 | O=C(Nc1ccncc1)c1c(F)cccc1F | inactive: > 76.9 µM
76 | CCOc1ccc2[nH]c(C)c(CN3CCCCC3)c(=O)c2c1 | inactive: > 76.9 µM
77 | COc1cccc(CN2CCN(CC(=O)Nc3ccccc3Cl)CC2)c1 | inactive
78 | Cc1ccc(SC(C)C(=O)N2CCCC2)cc1 (stereo not given) | inactive: > 76.9 µM
79 | Cc1cccc2sc(NC(=O)CNS(=O)(=O)c3ccc(Br)s3)nc12 | inactive: > 76.9 µM
80 | CC(Sc1nnnn1C)C(=O)Nc1ccccc1-c1ccccc1 (stereo not given) | inactive: > 76.9 µM
81 | COCCN(C(=O)CNC(=O)c1cccs1)C(C(=O)NC1CCCC1)c1cccs1 (stereo not given) | inactive: > 76.9 µM
82 | COc1cc(C2c3c(oc4c(C)cc(C)cc4c3=O)C(=O)N2Cc2cccnc2)ccc1O (stereo not given) | inactive: > 76.9 µM
83 | CCNC(=O)Cc1ccc(NS(=O)(=O)c2ccc(F)cc2)cc1 | inactive: > 76.9 µM
84 | O=C1CC(c2cccc(Cl)c2)CC(O)=C1C=NCCCO (stereo not given) | inactive: > 76.9 µM
85 | COc1ccccc1-c1cc(C(=O)Nc2cccnc2)no1 | inactive: > 76.9 µM
86 | CCOC(=O)N1CCN(C(=O)CC(=O)Nc2ccc3nc4n(c(=O)c3c2)CCCCC4)CC1 | inactive: > 76.9 µM
87 | Cn1nnc2cc(C(=O)N3CCCCCC3)ccc21 | inactive: > 76.9 µM
88 | COc1ccc(CNC(=O)c2cc(-c3ccccc3O)n[nH]2)cc1 | inactive: > 76.9 µM
89 | COc1ccc(-c2ccc(-c3noc(-c4ccncc4)n3)c(OC)n2)cc1 | inactive: > 76.9 µM
90 | COc1ccccc1NC(=O)CSc1nnc(-c2ccoc2C)n1CCc1ccccc1 | inactive: > 76.9 µM
